The results in this text go back to the BET-seq Pho4 binding data (Le et al. 2018).

Some of the results follow. These are noisy estimates, calculated here from bound and input reads.

The test addresses T1, Pho4 (S. cerevisiae) (UniProt P07270).
T1 sequence: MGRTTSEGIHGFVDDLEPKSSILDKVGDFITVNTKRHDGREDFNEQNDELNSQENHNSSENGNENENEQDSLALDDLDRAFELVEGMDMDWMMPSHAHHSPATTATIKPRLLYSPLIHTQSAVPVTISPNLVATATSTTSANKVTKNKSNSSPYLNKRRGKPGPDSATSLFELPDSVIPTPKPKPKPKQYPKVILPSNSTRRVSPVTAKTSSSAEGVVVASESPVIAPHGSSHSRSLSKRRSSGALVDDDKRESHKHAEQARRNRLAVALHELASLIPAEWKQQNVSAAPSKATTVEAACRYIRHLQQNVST
Kind of test: relative binding free energy (BET-seq); higher = weaker binding. The note with it: reference: library average.
In the case of TTATACACGTGATGTA, the “relative binding free energy” value worked out at 0.11 kcal/mol.

Take TGCTTCACGTGTGGAT: the “relative binding free energy” value was determined as 0.19 kcal/mol.

On to ATTTGCACGTGTTAGC, for which the “relative binding free energy” value was 0.17 kcal/mol.

As to ATAATCACGTGAGGTT, the “relative binding free energy” value is 0.39 kcal/mol.

Take GGATGCACGTGCGGTT: the “relative binding free energy” value is -0.03 kcal/mol.

On to ATGGGCACGTGATAGT, for which the “relative binding free energy” value was -0.01 kcal/mol.

As to GGGGTCACGTGTGTCA, the “relative binding free energy” value worked out at 0.19 kcal/mol.

As to TATCTCACGTGGTTTA, the “relative binding free energy” value came out at 0.19 kcal/mol.

On to TTGGACACGTGTCATG, for which the “relative binding free energy” value is -0.06 kcal/mol.

Consider AGTATCACGTGTGTCT, for which the “relative binding free energy” value amounted to 0.15 kcal/mol.

For TGTGGCACGTGTGATA, the “relative binding free energy” value was -0.16 kcal/mol.

For the sequence TGCTGCACGTGTGGGG, the “relative binding free energy” value is 0.06 kcal/mol.

Turning to TATCTCACGTGGTAGG, the “relative binding free energy” value turned out to be 0.21 kcal/mol.

In the case of GGTTTCACGTGACCGG, the “relative binding free energy” value stood at 0.42 kcal/mol.

Regarding GTTTACACGTGAGCGT, the “relative binding free energy” value was determined as 0.2 kcal/mol.

Consider GATGTCACGTGACGGA, for which the “relative binding free energy” value was 0.31 kcal/mol.

As to TTAGTCACGTGTGACG, the “relative binding free energy” value was found to be 0.07 kcal/mol.

As to TGTGCCACGTGGGGCC, the “relative binding free energy” value was -0.32 kcal/mol.

On to GCGAGCACGTGGTTGG, for which the “relative binding free energy” value is -0.03 kcal/mol.

Consider GTAGTCACGTGGACGT, for which the “relative binding free energy” value was determined as 0.1 kcal/mol.

Take GGCTTCACGTGAGGAT: the “relative binding free energy” value stood at 0.35 kcal/mol.

As to AGAGGCACGTGGCATT, the “relative binding free energy” value was -0.14 kcal/mol.

As for TTATGCACGTGCGCGG, the “relative binding free energy” value is -0.16 kcal/mol.

In the case of GGTCACACGTGAGGTA, the “relative binding free energy” value was determined as 0.5 kcal/mol.

GGTAGCACGTGGCTGT: the “relative binding free energy” value is -0.18 kcal/mol.

TCGGGCACGTGCGGAG: the “relative binding free energy” value is -0.19 kcal/mol.

Turning to GGGCTCACGTGGTTAT, the “relative binding free energy” value turned out to be 0.23 kcal/mol.

Consider GTCTACACGTGGAGGG, for which the “relative binding free energy” value was found to be 0.09 kcal/mol.

Take TACGGCACGTGGGGTA: the “relative binding free energy” value was -0.2 kcal/mol.

As for TGGTGCACGTGATATT, the “relative binding free energy” value worked out at 0.03 kcal/mol.

Turning to TTGAGCACGTGTGAAT, the “relative binding free energy” value was 0.05 kcal/mol.

On to TGGGCCACGTGGTGTC, for which the “relative binding free energy” value was -0.21 kcal/mol.

Turning to GTTTGCACGTGCCTGG, the “relative binding free energy” value was found to be 0.04 kcal/mol.

As to AGGGACACGTGGATTT, the “relative binding free energy” value is -0.01 kcal/mol.

In the case of GGCAACACGTGGGGTG, the “relative binding free energy” value is -0.12 kcal/mol.

As for GTTCACACGTGGCGTG, the “relative binding free energy” value was -0.01 kcal/mol.

With GTATTCACGTGCTTGT, the “relative binding free energy” value is 0.24 kcal/mol.

On to GGCGTCACGTGCGGGA, for which the “relative binding free energy” value came to 0.02 kcal/mol.

Regarding TAATGCACGTGCTGAG, the “relative binding free energy” value worked out at 0.09 kcal/mol.

Take GTAGCCACGTGAGGTG: the “relative binding free energy” value is 0.07 kcal/mol.

On to CGTTACACGTGTTGCG, for which the “relative binding free energy” value came out at 0.07 kcal/mol.

As for GACGTCACGTGGGGCT, the “relative binding free energy” value was -0.02 kcal/mol.

For the sequence TCGAACACGTGGTTGT, the “relative binding free energy” value is -0.08 kcal/mol.

With TGATGCACGTGGTGTT, the “relative binding free energy” value worked out at 0.01 kcal/mol.

On to TAACGCACGTGGGAGT, for which the “relative binding free energy” value is -0.26 kcal/mol.

With TTGTTCACGTGTACAG, the “relative binding free energy” value was 0.21 kcal/mol.

In the case of ATTTTCACGTGGTAGC, the “relative binding free energy” value amounted to 0.22 kcal/mol.

Consider TTTACCACGTGGGGAT, for which the “relative binding free energy” value was -0.13 kcal/mol.

For the sequence GGCCTCACGTGGATGG, the “relative binding free energy” value is 0.24 kcal/mol.

With ATGGTCACGTGCCGTA, the “relative binding free energy” value was determined as 0.06 kcal/mol.

For GGTGTCACGTGAGTGA, the “relative binding free energy” value was found to be 0.25 kcal/mol.

Take GGTAACACGTGGTGAA: the “relative binding free energy” value is 0.15 kcal/mol.

Consider TTTGGCACGTGGTCAT, for which the “relative binding free energy” value is -0.26 kcal/mol.

On to TAATGCACGTGGAGTG, for which the “relative binding free energy” value is -0.09 kcal/mol.

Consider GTACCCACGTGGGGTG, for which the “relative binding free energy” value was -0.19 kcal/mol.

As to GCGCGCACGTGCGGGG, the “relative binding free energy” value is -0.22 kcal/mol.

As to ACTTACACGTGGGGTT, the “relative binding free energy” value was found to be 0 kcal/mol.

As to GGAAACACGTGCGGTG, the “relative binding free energy” value was 0.07 kcal/mol.

In the case of TGGGGCACGTGGTCAG, the “relative binding free energy” value was -0.08 kcal/mol.

TGATACACGTGGCTGT: the “relative binding free energy” value was -0.14 kcal/mol.

As to AAAGACACGTGGTGTA, the “relative binding free energy” value was -0.16 kcal/mol.

With GTCTTCACGTGCTTGT, the “relative binding free energy” value came to 0.3 kcal/mol.

For the sequence GGTTACACGTGGTGAA, the “relative binding free energy” value was 0.03 kcal/mol.

For TGATACACGTGTGCTA, the “relative binding free energy” value was determined as 0.05 kcal/mol.

On to AGGTACACGTGAGTCG, for which the “relative binding free energy” value came to 0.26 kcal/mol.

In the case of GAAGGCACGTGATTGG, the “relative binding free energy” value is -0.03 kcal/mol.

TTTGACACGTGCGCTG: the “relative binding free energy” value is -0.05 kcal/mol.

With TGTTTCACGTGCCGTG, the “relative binding free energy” value amounted to 0.06 kcal/mol.
